According to article PMC7819943, “Rice protein-binding microarrays: a tool to detect cis-acting elements near promoter regions in rice”:
This is one part of the list.

The sequences below were run against T1, OsWOX13 (Oryza sativa, UniProt Q5QMM3 1-267) (assay: protein-binding microarray (RPBM); PBS, 2% BSA, 51.3 ng/ul salmon testes DNA, 50 uM zinc acetate, 200 nM TF, 25 C, 1 h; high values mean tight binding). Details: protein: recombinant; tags: N-terminal polyhistidine and DsRed monomer fusion (pET32a); label: CyDye5-dUTP incorporated in the synthesized complementary strand; 3' TTTTT single-stranded linker to array surface; dsDNA, one strand shown.
T1 sequence: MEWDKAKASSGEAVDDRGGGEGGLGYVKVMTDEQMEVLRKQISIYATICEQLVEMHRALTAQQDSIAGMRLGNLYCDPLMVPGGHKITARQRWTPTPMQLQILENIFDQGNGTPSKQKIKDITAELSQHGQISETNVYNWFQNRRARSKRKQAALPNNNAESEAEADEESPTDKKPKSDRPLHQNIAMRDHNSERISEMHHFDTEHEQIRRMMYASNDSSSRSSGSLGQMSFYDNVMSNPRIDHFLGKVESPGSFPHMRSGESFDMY
Method in brief: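 An Axon 4000B scanner gave the binding signal as per-feature fluorescence intensity in arbitrary units. This followed washing of a custom Agilent array that had been incubated for 1 h at 25 °C with 200 nM protein in PBS, 2% BSA, salmon testes DNA and 50 µM zinc acetate. The proteins were transcription factors fused at the N-terminus to polyhistidine and DsRed, expressed in E. coli BL21-CodonPlus and purified on Ni–NTA.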

| Sequence | binding signal |
| --- | --- |
| AACCCATCAATTAAATATTTTATTTATTATGTAATATTTTCGGAGTCACCTAGTGCAG | 18000 fluorescence intensity (a.u.) |
| GCTCTCAATTCAATCTCGCTTAATTCGATCGTCTTCTTCCCGGAGTCACCTAGTGCAG | 4020 fluorescence intensity (a.u.) |
| ACAAATTATCTCCCAGCTCTTTTAGTAAAATACGAAACGACGGAGTCACCTAGTGCAG | 4220 fluorescence intensity (a.u.) |
| GACAAATTAGTTGTTGACTTATCACACCCTACCCCATCTCCGGAGTCACCTAGTGCAG | 11300 fluorescence intensity (a.u.) |
| AAATTTTGTTATGATTAGTATTTTCATTGCTATTAGATGACGGAGTCACCTAGTGCAG | 8490 fluorescence intensity (a.u.) |
| ATGATTTACTATTAATCTAGTCTATTGCTGAGATATACATCGGAGTCACCTAGTGCAG | 11000 fluorescence intensity (a.u.) |
| CAGCATTTCGTTTCTAATTGGCACGACACGTATATACATCCGGAGTCACCTAGTGCAG | 7600 fluorescence intensity (a.u.) |
| CTTTAATTTAATTTAAGTCACTCCTCTAAACTTTGAGCTTCGGAGTCACCTAGTGCAG | 50900 fluorescence intensity (a.u.) |
| ATAACATTCTATAGGTTGATTGATTTTGAAACAGAAAGTTCGGAGTCACCTAGTGCAG | 22900 fluorescence intensity (a.u.) |
| TTAACTAATTTATCCTCCATTATATTTCTAACCTGACTGTCGGAGTCACCTAGTGCAG | 23600 fluorescence intensity (a.u.) |
| GAGTGTATTAAATTGGTTAACGACATAGTTTTGTGAAACTCGGAGTCACCTAGTGCAG | 4280 fluorescence intensity (a.u.) |
| AACATTTACGTAATTATAATTTATTTTGTTATGAGTTGTTCGGAGTCACCTAGTGCAG | 22300 fluorescence intensity (a.u.) |
| CAATCCATCAATCATTTTCTTTACAATCTCTACAGTTAGACGGAGTCACCTAGTGCAG | 16400 fluorescence intensity (a.u.) |
| AATTAGTTTAGCCAAATCAATAATTGAATATATTTTCATACGGAGTCACCTAGTGCAG | 3630 fluorescence intensity (a.u.) |
| TGCATTAAAATATTTAATAATTTATATGTGTTTATGGTACCGGAGTCACCTAGTGCAG | 6360 fluorescence intensity (a.u.) |
| TTGATTGTATGCCTTCTTTTGTGGGGAAATGAAGTTATGTCGGAGTCACCTAGTGCAG | 14100 fluorescence intensity (a.u.) |
| CGTATGATTTACTTTGAGATACGTGTATGTGCCATTGAGTCGGAGTCACCTAGTGCAG | 13600 fluorescence intensity (a.u.) |
| ATAATAATTAGTAGGAGTACCTACCAACCGTGGACTAGTACGGAGTCACCTAGTGCAG | 16500 fluorescence intensity (a.u.) |
| ATTTGATAGAAAATTGAAGGTTAACATAAACATTTAAATGCGGAGTCACCTAGTGCAG | 32400 fluorescence intensity (a.u.) |
| AAAGGAATCAATCATAATATGGTTGGCTCAACGTAGCAAGCGGAGTCACCTAGTGCAG | 10200 fluorescence intensity (a.u.) |
| ATACTCTAAATTAGTGTTTAAAGACAGGGAGACAGGGACTCGGAGTCACCTAGTGCAG | 12900 fluorescence intensity (a.u.) |
| TAAGCCTAATTAGTCTATGATTAGCCATAAGTGCTACAGTCGGAGTCACCTAGTGCAG | 37800 fluorescence intensity (a.u.) |
| TGTGATTGACCGAGAAGAGAATAATGGTGGAGTTATTATGCGGAGTCACCTAGTGCAG | 32600 fluorescence intensity (a.u.) |
| TAACATAGATTTGACTAAACTTTACCGGGTTTAATATTAACGGAGTCACCTAGTGCAG | 3300 fluorescence intensity (a.u.) |
| TGATAACCAATTCCCAGATGATTATTGTTATCCTCTCCTCCGGAGTCACCTAGTGCAG | 5840 fluorescence intensity (a.u.) |
| GTTGATGTGATAGAAAAGGACTGAAGTTTGGATCCAAAATCGGAGTCACCTAGTGCAG | 8120 fluorescence intensity (a.u.) |
| AGATTAATTCCTGCCTAATTTTGTTCTGAACTTCAGTTTACGGAGTCACCTAGTGCAG | 8280 fluorescence intensity (a.u.) |

| Sequence | binding signal |
| --- | --- |
| GATGGAAATTTGTGTGATGAACGGAACGGAGTGTGTACAGCGGAGTCACCTAGTGCAG | 5730 fluorescence intensity (a.u.) |
| TAAAATTAGAATTACAGAGAAACCAAGCTTCCGTTGTAGTCGGAGTCACCTAGTGCAG | 14800 fluorescence intensity (a.u.) |
| ACAAACTTCATTAACTACTGAATTAGTGCGTTTCATCTCACGGAGTCACCTAGTGCAG | 3650 fluorescence intensity (a.u.) |
| AAAACTGCTCACTTTCCGCTAATTATGACTTAATTTAAGGCGGAGTCACCTAGTGCAG | 16600 fluorescence intensity (a.u.) |
| TTTCTTAAATTGAACAAATAATTAATTGTGAAAAGAGAGGCGGAGTCACCTAGTGCAG | 30800 fluorescence intensity (a.u.) |
| TTCTTTGATTTCACCTACAGGATTGCAAGGAGGCAACTCCCGGAGTCACCTAGTGCAG | 3270 fluorescence intensity (a.u.) |
| CGCAATCATAGTAATATTATATTTTGATGTAATTTACAAACGGAGTCACCTAGTGCAG | 3930 fluorescence intensity (a.u.) |
| GCCATATGATAATTTGCTTTTCTACCATACTAACGTAGGTCGGAGTCACCTAGTGCAG | 4420 fluorescence intensity (a.u.) |
| GGAATTATATTACAATTATACTACACTTAGATTTTGAAAGCGGAGTCACCTAGTGCAG | 4640 fluorescence intensity (a.u.) |
| CTGGCGAGGGTGCTCGGTGGCCGATCCCTGCGTACGACGACGGAGTCACCTAGTGCAG | 7490 fluorescence intensity (a.u.) |
| CGTTGTGATTTATGAACAGCTCCTGCCAGAAACCAGAGTTCGGAGTCACCTAGTGCAG | 17000 fluorescence intensity (a.u.) |
| ATTTAGATTTAATCACACATCAGTCTGCCATTGTTACTACCGGAGTCACCTAGTGCAG | 15600 fluorescence intensity (a.u.) |
| CAACAATTTACATTGAATTTGATTGACAAAGGTATACGATCGGAGTCACCTAGTGCAG | 32600 fluorescence intensity (a.u.) |
| TTTGACTGAGGTTTAGACTAGAGCTGTACTAAACATGCCCCGGAGTCACCTAGTGCAG | 31300 fluorescence intensity (a.u.) |
| ACACACAATTAGATTAGACATGCTTGGACTGATGACTTAGCGGAGTCACCTAGTGCAG | 26100 fluorescence intensity (a.u.) |
| ACCACATAAATTTCTCTCTAATGCGAACATTCAAATGTGACGGAGTCACCTAGTGCAG | 3260 fluorescence intensity (a.u.) |
| AAACAAAATGATTTGTATATGAAACGGAGGGAGTAATAAGCGGAGTCACCTAGTGCAG | 9570 fluorescence intensity (a.u.) |
| TAATTTTAATTAATTCTAAATTGTATATTTGTATAGACTCCGGAGTCACCTAGTGCAG | 9440 fluorescence intensity (a.u.) |
| CACAATCTAATCAAGCTTCATCCGAGGCAGATCTCCACACCGGAGTCACCTAGTGCAG | 7440 fluorescence intensity (a.u.) |
| TTGATTGGGTAACAAAAGGGAACAATGGCTTATACTTTAACGGAGTCACCTAGTGCAG | 16700 fluorescence intensity (a.u.) |
| TAAACAGACGTGCAATTAAGGGTCGAAGGATACTCGCTTTCGGAGTCACCTAGTGCAG | 6170 fluorescence intensity (a.u.) |
| AGCAGTTTAGATTGGATACATATCAAAATTTATCTTGCCACGGAGTCACCTAGTGCAG | 28200 fluorescence intensity (a.u.) |
| GTTTCTCTAATTTATTTTGTGATAGCGCTTCAACCAACTCCGGAGTCACCTAGTGCAG | 22000 fluorescence intensity (a.u.) |
| CTCCTCCAAATTAAATCAACCAGCAGCAAACCATCCAGTACGGAGTCACCTAGTGCAG | 3380 fluorescence intensity (a.u.) |
| GATACATGCAAACAATGTGATTGGAAGGTTTGATAATATACGGAGTCACCTAGTGCAG | 8200 fluorescence intensity (a.u.) |
| TTTGAGTTTTAAATAGATTAGTGTTTGAGAGGGAGCCCTTCGGAGTCACCTAGTGCAG | 3830 fluorescence intensity (a.u.) |
| TCTCCTTAATTAGTCATTGCAATGCTCCTTGCCTTGTATTCGGAGTCACCTAGTGCAG | 24500 fluorescence intensity (a.u.) |
